In all, about 310,000 compounds went through this assay and about 2,200 (0.71%) showed an effect of 50% or more. The effect is printed as a negative number. Some of the results follow.
target: human ether-à-go-go-related gene (hERG) potassium channel (human, UniProt Q12809); assay: primary screen, population patch clamp on CHO cells stably expressing hERG
Sequence (Q12809 whole entry, looked up): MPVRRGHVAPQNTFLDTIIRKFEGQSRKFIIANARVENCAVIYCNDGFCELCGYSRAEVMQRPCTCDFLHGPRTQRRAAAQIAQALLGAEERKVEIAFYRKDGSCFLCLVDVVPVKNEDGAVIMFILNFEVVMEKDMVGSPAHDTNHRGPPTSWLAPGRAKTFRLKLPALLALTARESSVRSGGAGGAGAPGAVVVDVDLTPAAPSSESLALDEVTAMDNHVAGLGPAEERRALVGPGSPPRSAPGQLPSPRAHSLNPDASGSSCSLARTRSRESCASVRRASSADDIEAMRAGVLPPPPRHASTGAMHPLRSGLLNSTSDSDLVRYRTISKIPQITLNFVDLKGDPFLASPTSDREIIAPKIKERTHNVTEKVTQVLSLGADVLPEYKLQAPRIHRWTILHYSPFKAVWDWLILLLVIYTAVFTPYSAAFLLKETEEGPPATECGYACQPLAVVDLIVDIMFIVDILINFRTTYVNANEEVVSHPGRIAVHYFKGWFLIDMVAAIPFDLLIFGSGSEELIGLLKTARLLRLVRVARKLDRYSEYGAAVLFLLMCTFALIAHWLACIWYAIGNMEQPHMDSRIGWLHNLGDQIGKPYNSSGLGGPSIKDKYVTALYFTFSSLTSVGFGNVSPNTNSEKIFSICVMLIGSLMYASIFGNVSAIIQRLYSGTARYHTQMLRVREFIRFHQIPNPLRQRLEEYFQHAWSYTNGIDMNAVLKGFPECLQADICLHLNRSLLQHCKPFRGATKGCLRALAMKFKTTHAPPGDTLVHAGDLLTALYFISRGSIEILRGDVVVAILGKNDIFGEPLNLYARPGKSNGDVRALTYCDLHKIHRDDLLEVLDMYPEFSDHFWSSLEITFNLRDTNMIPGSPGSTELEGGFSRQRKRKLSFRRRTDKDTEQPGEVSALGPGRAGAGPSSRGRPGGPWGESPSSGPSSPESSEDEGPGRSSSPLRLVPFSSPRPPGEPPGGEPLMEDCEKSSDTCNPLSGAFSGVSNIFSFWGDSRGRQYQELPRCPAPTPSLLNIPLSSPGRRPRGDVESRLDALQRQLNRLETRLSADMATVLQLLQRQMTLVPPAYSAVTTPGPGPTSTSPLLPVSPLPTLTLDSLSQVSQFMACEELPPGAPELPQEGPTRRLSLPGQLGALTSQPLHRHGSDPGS

| Structure (SMILES) | hERG current change (%, negative = inhibition) at 1uM |
| --- | --- |
| Cc1nc(NC(C)c2ccccc2)sc1C(=O)Nc1ccccc1 (stereo not shown) | 8.64% |
| Cc1ccc(OCCNC(=O)CNC(=O)c2ccc3c(c2)OCO3)cc1 | 12.3% |
| Cc1ccc(-c2ccc(=O)[nH]n2)cc1 | 13.5% |
| Cc1nc(-c2ccccc2)nc2[nH]ccc(=O)c12 | 9.81% |
| N#CC(c1cccc(Cl)c1)c1ccc2c(C(F)(F)F)cc(C(F)(F)F)nc2n1 (stereo not shown) | 6.85% |
| Cn1ccnc1COc1ccc(C=O)cc1 | 12% |
| O=C(NC1CCCCC1)N1CCN(CCc2ccccc2)CC1 | 7.82% |
| Cc1c(N=Cc2cc(Br)cc(Br)c2O)cccc1C(=O)O | 14.8% |
| O=C(Cc1ccc(S(=O)(=O)N2CCCCC2)s1)Nc1ccc(F)cc1F | 8.57% |
| CCCC[C@H]1COCCS(=O)(=O)N1Cc1cccc(Cl)c1 | 6.74% |
| O=c1oc2ccccc2cc1-c1csc(NN=C2CCCC2)n1 | 10.4% |
| CCOC(=O)CCC(=O)OCC(=O)NC(C)C1CC2CCC1C2 (stereo not shown) | 18.1% |
| N#CC1=C(S)N=C(N)C(c2nc(-c3ccccc3)cs2)C12CCCCC2 (stereo not shown) | 14.1% |
| CCCCNC(=O)N1CCc2ccccc2C1 | 16.9% |
| CN(C)CCNc1c2c(nc3ccccc13)CCC2 | 10.7% |
| O=c1c(C(c2ccc(Cl)cc2)c2c(O)nc3n(c2=O)CCCS3)c(O)nc2n1CCCS2 | 15.8% |
| CCN(c1ccccc1)S(=O)(=O)c1cc2c(cc1C)NC(=O)CO2 | 9.44% |
| CCn1cc(CNC(=O)c2cc(-c3cc(OC)ccc3OC)nc3ccccc23)c(C)n1 | -12.5% |
| COc1ccccc1N1CCN(C(=O)c2ccc(Cn3c(=O)[nH]c4ccsc4c3=O)cc2)CC1 | 8.13% |
| Cc1ccc(NC(=O)CN2C(=O)NC3(CCCC3)C2=O)nc1 | 5.36% |
| Cc1sc2nc(COC(=O)c3cccc(S(=O)(=O)N(C)c4ccccc4)c3)[nH]c(=O)c2c1C | 11.8% |
| O=C(OCC(=O)N1CCCc2ccccc21)c1cccc(C(F)(F)F)c1 | 4.13% |

| Structure (SMILES) | hERG current change (%, negative = inhibition) at 1uM |
| --- | --- |
| COc1ccc(Cn2c(C3CC3)nc3ccc(NC(C)=O)cc3c2=O)cc1 | 11.4% |
| COc1ccc(C)cc1NC(=O)c1nnn(Cc2cccc(C(F)(F)F)c2)c1N | 16.9% |
| COc1ccccc1N1CCN(C(=O)CCNC(=O)c2ccco2)CC1 | 9.04% |
| Cc1ccn2c(C(=O)CSc3ccccc3Cl)c(C)nc2c1 | 12% |
| CCc1ccc(CN2C(=O)c3ccccc3C2C(=O)NC(C)CC)cc1 (stereo not shown) | 15.6% |
| O=C(c1ccc2ccccc2c1)C1CCCN(C(=O)c2noc3c2CCCC3)C1 (stereo not shown) | 11% |
| Clc1ccc(-c2noc(CCCOc3ccccc3)n2)cc1 | 9.45% |
| C/C(=N\OC(=O)c1ccc(C)cc1)c1c(C)nc2cc(C)ccn12 | 13.4% |
| CCOC(=O)c1c(N=CN(C)C)c(C#N)c2n1CCCC2 | 7.82% |
| CN(C(=O)CC1C(=O)NCCN1Cc1ccc(F)cc1Cl)C1CCCCC1 (stereo not shown) | 5.64% |
| CCOC(=O)c1nn(-c2ccc(F)cc2)c(-c2ccccc2)c1C(=O)c1ccccc1 | 13.9% |
| Cc1onc(-c2c(F)cccc2Cl)c1C(N)=S | 4.06% |
| COc1cc(/C=C/C(=O)O)cc(S(=O)(=O)N2CCN(S(=O)(=O)c3ccc(Cl)cc3)CC2)c1OC | 16% |
| Cc1ccc2[nH]c3c(=O)n(CCCN4CCOCC4)cnc3c2c1 | -0.039% |
| COc1cccc(-c2cc(C(=O)Nc3ccncc3)c3ccccc3n2)c1 | 1.47% |
| CCOC(=O)c1[nH]c2ccc(F)cc2c1NC(=O)C1=COCCO1 | 6.76% |
| CCCc1cc(=O)[nH]c(SCC(=O)NC(=O)NC2CCCC2)n1 | 9.98% |
| CN(C)c1ccc(N2C(=NC(=O)c3ccccc3)SC3CS(=O)(=O)CC32)cc1 (stereo not shown) | 6.02% |
| O=C(Nc1cccc(NC(=O)c2cccs2)c1)c1ccc(F)cc1 | 12.8% |
| Cc1c(C#N)c(N)nc2c3c(sc12)NC(=O)CC3c1ccc(Cl)cc1 (stereo not shown) | 9.23% |
| CCOc1ccc(CCNC(=O)COC(=O)COc2ccc(Cl)cc2)cc1OCC | 8.57% |
| NC(=O)NCc1cccs1 | 13.7% |

| Structure (SMILES) | hERG current change (%, negative = inhibition) at 1uM |
| --- | --- |
| COc1ccc(-c2[nH]ncc2CN2CCN(C3CCCCC3)C(=O)C2)cc1F | 9.9% |
| CCN=C(NCC)SC1CC(=O)N(c2ccc(OC)cc2)C1=O (stereo not shown) | 6.66% |
| O=C(CSc1ccc(-c2cccs2)nn1)NCCc1ccccc1 | 1.23% |
| Cn1cnnc1Sc1nc2c(c(=O)n(C)c(=O)n2C)n1C | 7.35% |
| CCCOc1ccc(/C(O)=C2\C(=O)C(=O)N(c3ccccn3)C2c2ccccc2F)cc1C (stereo not shown) | 3.81% |
| O=C(NC1CCCCC1)C1CCN(C(=O)c2ccc(-c3ccccc3)cc2)CC1 | 4.3% |
| Cc1cc(NS(=O)(=O)c2ccc(NC(=O)C(C)Oc3ccc(Cl)cc3)cc2)no1 (stereo not shown) | 12.5% |
| COc1ccc(/C=N/NC(=O)c2ccccc2F)cc1CN1CCN(c2ccc(F)cc2)CC1 | -64.4% |
| Cc1cccc(N2C(=O)C(O)=C(C(=O)c3cccs3)C2c2ccc(F)cc2)n1 (stereo not shown) | 10.5% |
| COC(=O)c1ccc(CN2CCc3ccc(NC(=O)c4ccncc4)cc3C2)cc1 | 9.37% |
| Cc1n[nH]c(C)c1Sc1ccccc1N | 8.84% |
| CCOC(=O)CNc1c(-c2ccc(O)cc2)nc2ccc(Cl)cn12.Cl | -13.3% |
| Cc1nn(Cc2c(F)cccc2Cl)c(C)c1NC(=O)C1CC1 | 3.23% |
| CC(=O)Nc1ccc2c(COC(=O)CC3Sc4ccccc4NC3=O)cc(=O)oc2c1 (stereo not shown) | 12.4% |
| CC(=O)N(C)Cc1ccc(C(=O)CCl)cc1 | 9.71% |
| COc1ccc(CNC(=O)Cn2nc([N+](=O)[O-])c(Br)c2C)cc1OC | 4.71% |
| O=C(O)c1cc(NC(=O)c2ccc(Cl)c([N+](=O)[O-])c2)cc(C(=O)O)c1 | 7.11% |
| Clc1ccc(-c2cnc(Oc3ccccc3)nc2)cc1 | 7.11% |
| O=C(Nc1cccnc1)c1ccc(CSc2ccccc2)cc1 | 4.9% |
| CCOC(=O)C1(CCc2ccccc2)CCN(C(=O)C2CCOCC2)CC1 | -21.2% |
| CN(C)S(=O)(=O)c1cccc(C(=O)OCC(=O)Nc2sccc2C#N)c1 | 8.48% |
| Cn1nc(C(F)(F)F)c(-c2ccccc2)c1NC(=O)CSCC(=O)O | 10.2% |

| Structure (SMILES) | hERG current change (%, negative = inhibition) at 1uM |
| --- | --- |
| CCOC(=O)C1CCN(c2ccc([N+](=O)[O-])cc2S(=O)(=O)N2CCOCC2)CC1 | -2.21% |
| CC(CCc1ccccc1)NC(=O)c1ccc(C(=O)NC(C)CCc2ccccc2)cc1 (stereo not shown) | 5.63% |
| COC(=O)C1=C(c2ccc(F)cc2OCc2ccccc2)C[C@@H]2CC[C@H]1N2C(=O)N1CCC(O)CC1 | 12.1% |
| CCNc1nc(NCC)nc(N(C#N)CCOc2ccccc2)n1 | -13.7% |
| COC(=O)c1ccc(/C=C2/C(=O)Oc3ccccc32)cc1 | 16.8% |
| N#Cc1c(-c2ccccc2)c(-c2ccccc2)nn(CC(=O)NNC(=O)Nc2ccc(Cl)c(Cl)c2)c1=O | -4.54% |
| O=C(CCC(=O)N1CCC2(CC1)OCCO2)Nc1nnc(C(F)(F)F)s1 | 12.9% |
| Cc1cc(-c2csc(NC(=O)c3cccc(S(=O)(=O)N(C)C)c3)n2)c(C)n1-c1ccccc1 | 9.26% |
| COc1ccc(CCN(C)C2CCCN(S(C)(=O)=O)C2)cc1OC (stereo not shown) | 6.5% |
| Cn1c(Cn2cnc([N+](=O)[O-])n2)nnc1SCC(=O)Nc1cccc(Cl)c1 | 5.55% |
| COC(=O)/C(C#N)=C1/C=Cc2ccccc2N1 | 6.5% |
| CCOC(=O)c1[nH]c2ccc(OC)cc2c1NC(=O)CN1CCc2ccccc2C1 | -2.6% |
| O=C(OCC(=O)N1CCCCC1)c1cc(NS(=O)(=O)c2ccc(Cl)c([N+](=O)[O-])c2)ccc1O | 12.5% |
| Cc1c(C(=O)N2CCC[C@H]2C(N)=O)oc2c(F)cccc12 | 14.7% |
| S=c1[nH]cc(-c2ccccc2)n1-c1ccccc1 | 11.1% |
| Cc1ccc(Nc2c(-c3ccccc3O)nc3ncccn23)cc1 | 8.42% |
| Cn1c(O)c(/C=C/C=Nc2ccccc2)c(=O)n(C)c1=S | 6.02% |
| COc1ccc2ccc(O)c(CN3CCN(S(=O)(=O)c4cc([N+](=O)[O-])ccc4C)CC3)c2c1 | 3.82% |
| Cc1c(OCC(F)(F)F)ccnc1CSc1nc2ccccc2[nH]1 | 15.8% |
| COc1cccc(C(=O)C2CCCN(Cc3cccn3-c3ccccn3)C2)c1 (stereo not shown) | -84% |
| O=c1c2c(n3nnnc3n1Cc1ccccc1)-c1ccccc1CC21CCCC1 | 7.31% |
| CCN(CC)CCN1C(=O)C(O)=C(C(=O)c2cccs2)C1c1ccc(C)o1 (stereo not shown) | 16.1% |

— article PMC4336329 (PLoS ONE, 2015)
